Tested on: MK-801 pre-treated rats
Assay: Locomotor activity in MK-801 pre-treated rats (antipsychotic activity model)
Settings: rats pre-treated with MK-801 0.7 mg/kg i.p. 90 minutes before test compound; test compound 100 μmol/kg; recorded between 30 and 60 minutes after administration

Structure (SMILES)	Locomotor activity, MK + example 100 μmol/kg
CCCN1CC(O)(c2cccc(F)c2F)C1 [Example 1, 3-(2,3-DIFLUOROPHENYL)-1-PROPYLAZETIDIN-3-OL]	5493 counts/30 min
CCCN1CC(O)(c2cccc(Cl)c2F)C1 [Example 6, 3-(3-Chloro-2-Fluorophenyl)-1-Propylazetidin-3-Ol]	8968 counts/30 min
